Experimental data published in ChEMBL document CHEMBL1201862, “PubChem BioAssay data set” (2004).
“And” between values parts separate entries of the source, which are not always exact repeats. Identical values can stand only once.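 Five concentrations, 48 hours, 96-well plates. Abbreviation: GI50, concentration required for 50% inhibition of growth.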 The source made the active and inactive calls. No stated cut-off is given here; in the data, active = GI50 up to about 1.1 µM and inactive = higher.

System: NCI-H322M
Experiment: growth of human tumour cells (NCI), 48 h

| SMILES | GI50 |
| --- | --- |
| COc1ccc2nc(NC(=O)C(=O)CC(=O)c3ccc(Cl)cc3)sc2c1 | inactive: 49.1 µM |
| CC(C)c1ccc(NC(=S)NC(=O)c2ccccc2)cc1 | inactive: 35.2 µM |
| Brc1c(C#CCC(c2ccccc2)(c2ccccc2)c2ccccc2)ccc(C#CCC(c2ccccc2)(c2ccccc2)c2ccccc2)c1Br | inactive: > 100 µM |
| CN(C)c1ccc(C(C#N)NNC(=O)Cc2ccccc2)cc1 (stereo not drawn) | inactive: > 100 µM |
| O=C(c1ccccc1)N1CCC(Nc2nccs2)O1 (stereo not drawn) | inactive: > 10 µM |
| COc1c(O)ccc2c1CN1CCc3cc4c(cc3C1C2)OCO4 (stereo not drawn) | inactive: 22.8 µM |
| C=C1C(=O)O[C@H]2C1C[C@H](O)/C(C)=C/CC[C@@]1(C)O[C@H]21 (stereo partly drawn) | inactive: 17.9 µM |
| C=C1CCC(O)C/C1=C/C=C1\CCCC2(C)C1CCC2C(C)CCCC(C)C (stereo not drawn) | inactive: 34.6 µM |
| CC1CC(=O)Nc2ccc(Cl)cc2N1C(=O)CN1CCC(CCCCN(C)C)CC1 (stereo not drawn) | inactive: > 100 µM |
| S=C(Nc1ccccc1)N(Cc1ccccc1)c1ccccc1 | inactive: 25 µM |
| O=S(=O)(F)Cc1ccccc1 [PHENYLMETHYLSULFONYLFLUORIDE] | inactive: > 100 µM |
| COc1cc(NC(C)CCCN)c2ncccc2c1 (stereo not drawn) [PRIMAQUINE PHOSPHATE] | inactive: 55.1 µM |
| O=C(/C=C/c1ccc2c(c1)OCO2)Cc1nc2ccccc2[nH]c1=O | inactive: 33.5 µM |
| O=C(CCSC1=NCCCN1)c1ccc(F)cc1 | inactive: 20.1 µM |
| COc1ccc2ccc([Se]c3ccc4ccc(OC)cc4c3)cc2c1 | inactive: > 100 µM |
| COc1cc(/C=C2\N=C(c3ccccc3)N(c3nc4cc(C)c(C)cc4s3)C2=O)cc(OC)c1OC | inactive: 31.3 µM |
| COc1ccc(Nc2nc3cc(C(F)(F)F)ccc3nc2C(=O)O)cc1OC | inactive: 35.6 µM |
| COC(=O)C1=C(\c2ccccc2)c2ccccc2C(=O)N(C2CCCCC2)/C=C\1 | inactive: 31.4 µM |
| O=C(N/N=C/c1ccc2c(c1)CCC2)c1ccccc1O | inactive: 21.5 µM |
| N=C(N)N/N=C(\c1ccc(F)cc1)c1ccc(C(F)(F)F)cc1 | active: 0.418 µM |
| O=c1oc2ccccc2c(-c2ccc(O)cc2)c1Oc1ccc(Cl)cc1 | inactive: 28.6 µM |
| Cc1cccc(NC(=O)Cc2nc3ccccc3s2)c1C | inactive: > 100 µM |
| COC(O)C(=O)c1c2c(cc3c1CCC3)CCCC2 (stereo not drawn) | inactive: 10.4 µM |
| O=C(O)c1c(-c2c3ccc(=O)cc-3oc3cc(O)ccc23)cc2ccccc2c1-c1ccccc1 | inactive: > 100 µM |

| SMILES | GI50 |
| --- | --- |
| O=c1[nH]cc(/C=N\Nc2ccccc2)c(=O)[nH]1 | inactive: > 100 µM |
| CC1CC(=O)Nc2ccc(/N=N/N(C)C)cc2N1C=O (stereo not drawn) | inactive: > 100 µM |
| Cc1cc(C)n(CCNCCn2nc(C)cc2C)n1 | inactive: > 100 µM |
| CCOC(=O)C(=Cc1ccccc1Br)C(=O)OCC | inactive: 2.62 µM |
| COc1ccc(-c2c(C#N)c(N)n(C3OCC(OC(C)=O)C(OC(C)=O)C3OC(C)=O)c(=S)c2C#N)cc1 (stereo not drawn) | inactive: 47.9 µM and inactive: 76.4 µM |
| CC(=O)NNc1nc(C)c(C(=O)NNC(=O)C(=O)Nc2ccc(Cl)cc2)s1 | inactive: > 100 µM |
| CCOC(=O)/N=c1/nc(N(C)C)ss1 | inactive: > 100 µM |
| Oc1c(/N=N\c2ccccc2)c2cccc3ccc4cccc1c4c32 | inactive: > 100 µM |
| CS(=O)(=O)OCC(CCl)(CCl)CCl | inactive: > 100 µM |
| Cc1ccc(C(=O)N2c3ccccc3N(C)n3cccc3C2CC(=O)O)cc1 (stereo not drawn) | inactive: > 100 µM |
| COc1cc(/C=C2\N=C(c3ccccc3)N(c3cc4cc(Sc5ccccc5)ccc4[nH]3)C2=O)ccc1O | inactive: > 50 µM |
| COc1ccc(/C(=N\NC(=O)NN)C(c2ccc(OC)cc2)C2(O)C(=O)Nc3c(Cl)cc(Cl)cc32)cc1 (stereo not drawn) | inactive: > 100 µM |
| Clc1cc(OCc2nn3c(Cc4ccccc4)nnc3s2)ccc1OCc1nn2c(Cc3ccccc3)nnc2s1 | inactive: 61.4 µM |
| CN(/N=C\c1ccc2ccccc2c1)C1=NCCN1 | inactive: 17.6 µM |
| Cc1oc2c(c1C)S(=O)(=O)C(C#N)=C(c1ccccc1)N2 | inactive: > 100 µM |
| COc1cccc(-c2cc(=O)c3ccccc3o2)c1N | inactive: 81.3 µM |
| CN1CCC(O)(C(C)(C)C)CC1 | inactive: > 100 µM |
| CC(=O)N(CCN1C(=O)c2ccccc2C1=O)CCN1C(=O)c2ccccc2C1=O | inactive: > 100 µM |
| CC1(C)CC(=O)C(=CNC(=S)c2ccccc2)C(=O)C1 | inactive: > 100 µM |
| CCCc1cn2c(/C=N/NC(=N)N)c(-c3ccc([N+](=O)[O-])cc3)nc2s1 | inactive: 1.77 µM |
| O=C(C#Cc1ccccc1)N1c2ccccc2CC1c1c[nH]c2ccccc12 (stereo not drawn) | inactive: 19.7 µM |
| COc1ccc2c(c1)C(=O)CC1c3cnccc3C(=O)N21 (stereo not drawn) | inactive: > 100 µM |
| N/C(=N\O)N/N=C/c1cc(I)cc(I)c1O | inactive: 46.5 µM |
| Cc1cccc(NC(=O)C(=O)C(C(=O)c2ccc3ccccc3c2)C2OC(=O)c3ccccc32)c1C (stereo not drawn) | inactive: 10.1 µM |

| SMILES | GI50 |
| --- | --- |
| COc1ccc(C2=NN(C(=O)c3ccc(Cl)cc3)C(O)(c3cc(F)c(Cl)cc3Cl)C2)cc1 (stereo not drawn) | inactive: 47.4 µM |
| C=C(O)c1ccccc1C#Cc1ccccc1C(=O)OC | inactive: > 10 µM |
| Cc1c(CCl)c(=O)oc2c(C)c3occ(CCl)c(=O)c3cc12 | inactive: > 100 µM |
| CN(C)/N=C1\CC(c2ccccc2)C(C#N)(C#N)C1(C#N)C#N (stereo not drawn) | inactive: 23.5 µM |
| Cc1ccc(N2C[N+](c3ccccc3)=NC(c3ccccc3)=N2)cc1 | inactive: 46.7 µM |
| CCNc1cc2c3c(c1)CCCN3CCC2 | inactive: 17.5 µM |
| C=C1CCC(OC(C)=O)C2(C)C(OC(C)=O)CC3OC3(C)C2C(OC(C)=O)C2C(C)C(=O)OC2C1Cl (stereo not drawn) | inactive: > 100 µM |
| Cc1ccc(NC(=O)CC/C(CC(=O)C(C)(C)C)=N/NC(=O)C[N+](C)(C)C)cc1C | inactive: > 100 µM |
| COc1cc2c(cc1OC)C1=Cc3cc(OC)c(OC)cc3C(C)N1C=C2 (stereo not drawn) | inactive: 61.4 µM |
| C/C=C1\C(=O)OC2CCN3CCC(COC(=O)C(C)(O)C(C)C1O)C23 (stereo not drawn) | inactive: > 100 µM |
| CN(CCCNC(=O)c1n[nH]c2c1ccc1ccccc12)CCCNC(=O)c1n[nH]c2c1ccc1ccccc12 | inactive: 19.6 µM |
| COc1ccc2c(c1)Oc1cc(O)ccc1[C@H]2c1ccccc1C(=O)NC(C)c1ccccc1 (stereo partly drawn) | inactive: 17.1 µM |
| CC1(C)CC(=O)c2c(nc3ccc4ccccc4c3c2-c2ccc(NC(=O)CCCCCCCCC(=O)Nc3ccc(-c4c5c(nc6ccc7ccccc7c46)CC(C)(C)CC5=O)cc3)cc2)C1 | inactive: > 100 µM |
| CN1c2ccccc2S(=O)(=O)n2c(CCc3ccccc3)nnc21 | inactive: > 100 µM |
| Cc1nc(-n2nc(-c3ccccc3)cc2-c2ccccc2)sc1C(/C=C/c1ccc([N+](=O)[O-])cc1)=N/NC(=O)c1ccncc1 | inactive: 29.8 µM |
| O=C1C2CCC(C2)C12CC1(c3ccccc3)C(=O)c3ccccc3N1O2 (stereo not drawn) | inactive: > 100 µM |
| Cc1ccc2c(c1)C1C(CO2)C(c2ccccc2)=NN1c1ccccc1 (stereo not drawn) | inactive: > 100 µM |
| O=C(O)Cc1nc[nH]c1C(=O)O | inactive: > 100 µM |
| NC(C(=O)O)c1ccc(C(=O)O)cc1 (stereo not drawn) | inactive: > 100 µM |
| COC(=O)C(Cc1c[nH]c2ccccc12)NC(=O)C(Cc1c[nH]c2ccccc12)NC(=O)OCc1ccccc1 (stereo not drawn) | inactive: 20 µM |
| CC(C)=Nn1cnc2c1=NC(C)(C)NC=2C(N)=O | inactive: > 10 µM |
| C[N+](C)(C)c1ncnc2c1ncn2C1CC(O)C(CO)O1 (stereo not drawn) | inactive: > 100 µM |
| COc1cc2ccc1OCc1cccc(n1)COc1ccc(cc1OC)/C=N\CCNCC/N=C\2 | inactive: > 100 µM |
| Cc1ccc(C2NC(=O)c3ccccc3N2)c(C)c1 (stereo not drawn) | inactive: 7.4 µM |

| SMILES | GI50 |
| --- | --- |
| CNc1ncc(-c2nnnn2-c2ccccc2)c(CN(C)C)n1 | inactive: > 100 µM |
| Nc1nc(Nc2cc(F)c(Cl)c(F)c2)cc(=O)[nH]1 | inactive: 57.3 µM |
| S=C(N/N=C/c1ccccc1)NC1CC(c2ccccc2)Oc2ccccc21 (stereo not drawn) | inactive: 53.8 µM |
| Cc1cccc(NC(=O)c2c(N)[n+]([O-])c3ccccc3[n+]2[O-])c1 | inactive: 17.1 µM |
| O=S1(=O)c2cc(S(=O)(=O)n3ccnc3)ccc2NC2=NCCCN21 | inactive: 70.5 µM |
| CCCCCCCCCCC/C=C(/C(=O)CCCO[Si](C)(C)C(C)(C)C)C(=O)OC | inactive: > 100 µM |
| COc1ccc(CNC(C)C(=O)O)cc1 (stereo not drawn) | inactive: > 100 µM |
| CN(C)C(=N)/N=C(\N)Nc1cccc(Cl)c1 | inactive: > 100 µM |
| CCC(C)C(=O)OC1CC2(C)C(c3ccoc3)OC(=O)CC23OC2(C)OC34C(OC(=O)C(C)C)C3(O)C(OC(=O)C5(C)OC5C)C5(C)CC3(O)C(C)(C5CC(=O)OC)C14O2 (stereo not drawn) | inactive: > 100 µM |
| COc1ccc(-c2c(N)n(-c3cccc(C(=O)O)c3)c(=O)c3cc([N+](=O)[O-])ccc23)cc1 | inactive: > 100 µM |
| N#CC(C(=O)/C(=N/N)C(C#N)c1ccccc1)c1ccccc1 (stereo not drawn) | inactive: > 100 µM |
| COc1cc(/C=N/NC(=O)c2c(Cl)c(Cl)c(Cl)c(Cl)c2-c2nc3ccccc3[nH]2)ccc1O | inactive: 22.5 µM |
| Cc1c(C(=O)O)n2cnnc2c2ccccc12 | inactive: > 100 µM |
| CC(=O)OCC1OC(n2c(S)nc(-c3ccccc3)c(C#N)c2=O)C(OC(C)=O)C(OC(C)=O)C1OC(C)=O (stereo not drawn) | inactive: > 100 µM |
| O=C(O)c1cc2c(cc1CC(Cc1ccc3c(c1)CCC3)C(=O)O)CCC2 (stereo not drawn) | inactive: > 100 µM |
| O=c1[nH]n2c(=O)cc[nH]c2c1-c1nnns1 | inactive: > 100 µM |
| C=CCN(N=O)C(=O)N(CCC)CCCC(NC(C)=O)C(=O)NCc1ccccc1 (stereo not drawn) | inactive: > 100 µM |
| C/C(NC(=O)c1ccccc1)=C(/C(=O)c1ccccc1)[C@@H]1OC(C)(C)O[C@@H]1[C@H]1COC(C)(C)O1 | inactive: 31.4 µM |
| CN(C)CCCNc1ccc2nnn3c4ccc(OC(=O)c5ccccc5)cc4c(=O)c1c23 | inactive: 4.11 µM |
| Nc1ccccc1S(=O)(=O)c1ccccc1 | inactive: > 100 µM |
| COc1ccc2c(c1)[n+]([O-])c(C(=O)C/C(=N/OCCCc1ccccc1)C(=O)NC13CC4CC(CC(C4)C1)C3)c(C)[n+]2[O-] | inactive: > 100 µM |
